Measured values from the supplement of paper PMC10126150.
Values marked as one replicate rest on one cluster of the flow cell; about a third of the high ones do not repeat.

These sequences were tested on ATP (assay: switch fluorescence ratio, 500 uM ATP over buffer (Cy3 cluster intensity, sum of 5 cycles each) (fold (ratio)); higher = stronger signal-on switching upon ATP binding; sequences stand for … in TCGTCGGCAGCGTCAGATGTGTATAAGAGACAGTTTTTTTTTTTTTTTTTTTTTTTTT…TC). Settings: aptamer strand: ATP DNA aptamer (quencher-CACCTGGGGGAGTATTGCGGAGGAAGG + anchor), 100 nM annealed; ATP concentration: 500 uM; one replicate.
In short: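 The quencher-labelled ATP aptamer, at 100 nM, was annealed to Cy3-labelled switching-strand clusters on a modified Illumina MiSeq flow-cell. The clusters were imaged in selection buffer, then after 15 min with 500 uM ATP at 22 °C, and this buffer/ATP cycle ran five times with NaOH stripping and re-annealing between runs. Per-cluster fluorescence ratios, summed target-cycle over summed buffer-cycle Cy3 intensity, were averaged per switch-domain sequence. Clusters outside 100-1000 RFU were excluded.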
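Also: ATP exposure 15 min at 22 °C before imaging.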

| Sequence | switch fluorescence ratio |
| --- | --- |
| GACGGAATGT | 1.64 |
| GACGGATGGT | 0.969 |
| GACGGCAGGC | 1.05 |
| GACGGCGGTG | 1 |
| GACGGCTTCA | 0.947 |
| GACGGGAGCA | 1.17 |
| GACGGGGGA | 1.17 |
| GACGGTGTAG | 1.02 |
| GACGGTGTCG | 1.19 |
| GACGGTGTTG | 0.987 |
| GACGTCAACG | 0.969 |
| GACGTCTAGG | 1.02 |
| GACGTCTCCA | 0.953 |
| GACGTTGCG | 0.982 |
| GACGTTGTCC | 1.03 |
| GACTAAACGA | 1.17 |
| GACTACAACT | 1.03 |
| GACTACTATT | 1.09 |
| GACTAGAGAT | 0.954 |
| GACTATAAAT | 1.04 |
| GACTATACTA | 1.23 |
| GACTATAGAG | 1.02 |
| GACTATCGCC | 1.17 |
| GACTCAGATC | 1.07 |
| GACTCCCTCT | 1.26 |

| Sequence | switch fluorescence ratio |
| --- | --- |
| GACTCCGAGG | 1.16 |
| GACTCGTTAT | 1.07 |
| GACTCTGCGG | 1.17 |
| GACTGATTAG | 1 |
| GACTGCGCCA | 1.87 |
| GACTGGAGAA | 1.01 |
| GACTGGTAGA | 0.978 |
| GACTGGTAGT | 0.988 |
| GACTGTTTGG | 1.01 |
| GACTTAAGGA | 0.958 |
| GACTTAAGTC | 1.02 |
| GACTTCATAG | 1 |
| GACTTCTTAA | 0.98 |
| GACTTGATTG | 0.937 |
| GACTTGCAG | 1.07 |
| GACTTGGCCC | 0.998 |
| GACTTTGAAA | 1.03 |
| GAGAAAATCC | 1.02 |
| GAGAAAATG | 1.01 |
| GAGAAAGGGA | 1.01 |
| GAGAACCAGC | 1 |
| GAGAACTTTC | 0.945 |
| GAGAAGAAGA | 1.02 |
| GAGAAGCACT | 1.02 |
| GAGAAGGCCA | 1 |

| Sequence | switch fluorescence ratio |
| --- | --- |
| GAGAATAACG | 0.991 |
| GAGACCCTTC | 1 |
| GAGACCTCGC | 1.03 |
| GAGACTGGGG | 0.996 |
| GAGACTGTAA | 1.04 |
| GAGAGAGCTA | 0.986 |
| GAGAGGTTTC | 1.01 |
| GAGATAACCG | 0.959 |
| GAGATCACAC | 1.01 |
| GAGATCGGCT | 1.07 |
| GAGATCGTCC | 1.01 |
| GAGATCTTCA | 1.03 |
| GAGATCTTCG | 1.05 |
| GAGATGAGGT | 1.02 |
| GAGATGTGGA | 0.998 |
| GAGATGTTAC | 0.981 |
| GAGATTAGAA | 0.997 |
| GAGATTATGT | 0.957 |
| GAGATTCATA | 1.01 |
| GAGATTGGTC | 1.01 |
| GAGATTTCTT | 1.02 |
| GAGCAGAGCA | 0.982 |
| GAGCAGTTCG | 0.974 |
| GAGCATATTT | 1.41 |
| GAGCCGTCCC | 1.04 |

| Sequence | switch fluorescence ratio |
| --- | --- |
| GAGCCTGGCG | 0.984 |
| GAGCGAGCAA | 1.4 |
| GAGCGATGAC | 1.66 |
| GAGCGCCTGG | 1.05 |
| GAGCGGATCG | 1.01 |
| GAGCTATATA | 1.06 |
| GAGCTTAGTT | 1.02 |
| GAGCTTATAA | 1.12 |
| GAGCTTTAT | 0.982 |
| GAGGAAGCTT | 1.02 |
| GAGGACATTT | 0.973 |
| GAGGACGATT | 1.01 |
| GAGGACTCGG | 0.987 |
| GAGGAGAAAC | 0.992 |
| GAGGAGAGGG | 0.97 |
| GAGGAGAGTG | 0.992 |
| GAGGAGTCAC | 0.991 |
| GAGGAGTGAT | 1 |
| GAGGATCCTT | 0.955 |
| GAGGATCGTC | 0.965 |
| GAGGATTGGT | 1.01 |
| GAGGCAGACG | 1.06 |
| GAGGCCACCA | 1.03 |
| GAGGCCGGCT | 1.09 |
| GAGGCGAGAG | 1.12 |

| Sequence | switch fluorescence ratio |
| --- | --- |
| GAGGCGTAAA | 0.982 |
| GAGGCTGCGT | 0.976 |
| GAGGCTTTGT | 0.991 |
| GAGGGAAAGC | 0.984 |
| GAGGGAAGGA | 1.01 |
| GAGGGAGAAT | 0.97 |
| GAGGGATAGA | 1.01 |
| GAGGGCCCAC | 1.02 |
| GAGGGGAG | 0.967 |
| GAGGGGCTT | 1.02 |
| GAGGGTGAAC | 1.04 |
| GAGGGTGGAG | 1.03 |
| GAGGTACAGT | 1.03 |
| GAGGTAGGGC | 0.921 |
| GAGGTATCTT | 0.994 |
| GAGGTCGCTG | 1.02 |
| GAGGTGGTTG | 1.08 |
| GAGGTTGCCA | 0.936 |
| GAGTAACCGC | 1.03 |
| GAGTACACGC | 1.02 |
| GAGTACCCAC | 1.07 |
| GAGTACCTGC | 0.918 |
| GAGTACGCCC | 1.1 |
| GAGTACTCTG | 1.03 |
| GAGTAGGTAG | 1 |

| Sequence | switch fluorescence ratio |
| --- | --- |
| GAGTATTGGC | 1.02 |
| GAGTCAGGCG | 0.975 |
| GAGTCATTGG | 1.03 |
| GAGTCCTG | 0.988 |
| GAGTCGGCTA | 0.978 |
| GAGTCTACTG | 1.04 |
| GAGTCTGGAG | 1.02 |
| GAGTCTTA | 0.997 |
| GAGTGAAATA | 0.986 |
| GAGTGAGATC | 1.04 |
| GAGTGCAGAC | 1.02 |
| GAGTGGGGCT | 0.985 |
| GAGTGTTGAG | 0.979 |
| GAGTTAATGG | 0.986 |
| GAGTTATCTG | 1.06 |
| GAGTTTACTG | 0.981 |
| GAGTTTATGA | 0.999 |
| GATAAAACGG | 0.937 |
| GATAAAAGGT | 1.06 |
| GATAACGCAT | 2.28 |
| GATAACGCCG | 0.975 |
| GATAACGGCT | 0.874 |
| GATAACTTGC | 1.06 |
| GATAAGAAAT | 1.02 |
| GATAAGATAT | 1.11 |

| Sequence | switch fluorescence ratio |
| --- | --- |
| GATAATATGT | 1 |
| GATACACTAG | 1.04 |
| GATACCCTGA | 1.03 |
| GATACCGCCC | 2.54 |
| GATACCTCAG | 1.02 |
| GATACGACG | 1.04 |
| GATACGAGTT | 0.958 |
| GATACGCGCA | 1.02 |
| GATACGGTGT | 1.02 |
| GATACGTGTG | 0.962 |
| GATACTCAAT | 0.985 |
| GATACTCCTA | 0.999 |
| GATACTGGTA | 1.07 |
| GATACTTACT | 1.27 |
| GATAGAGACA | 0.989 |
| GATAGCAGTT | 1.01 |
| GATAGCGAAG | 1.03 |
| GATAGGAGTG | 0.987 |
| GATAGTCGTA | 1.09 |
| GATAGTGTGC | 1.07 |
| GATAGTTCTT | 1.06 |
| GATAGTTGTT | 0.939 |
| GATATAAGTG | 1.04 |
| GATATAGCGC | 0.974 |
| GATATCCTAT | 1.02 |

| Sequence | switch fluorescence ratio |
| --- | --- |
| GATATCGAAA | 1.01 |
| GATATCGGTT | 0.955 |
| GATATCTGGG | 0.995 |
| GATATGACAA | 0.993 |
| GATATGCGGA | 0.991 |
| GATATTAGGG | 1.03 |
| GATATTATAA | 0.987 |
| GATATTCAGA | 0.976 |
| GATATTGGAT | 1.01 |
| GATCAAGAAA | 1.09 |
| GATCAAGCCT | 1.1 |
| GATCAATAAC | 1.02 |
| GATCAATGTG | 1 |
| GATCACAAGA | 1.05 |
| GATCAGACCA | 1.02 |
| GATCAGGGC | 1.05 |
| GATCATAT | 0.971 |
| GATCCACCAG | 1.57 |
| GATCCAGGAA | 1.01 |
| GATCCAGGGT | 1.09 |
| GATCCATCGG | 0.992 |
| GATCCATGGC | 1.02 |
| GATCCCAGGT | 3.11 |
| GATCCCTCGT | 0.991 |
| GATCCCTGGG | 1.08 |
